In the RNAGym collection of RNA variant scans (doi:10.7554/elife.90254) one finds self-cleavage data, which are given here for 167 variants.

Read counts are not given, so values of variants with three or more changes are uncertain.

Sequences and labels used below:
B1: LINE1-mini (parent)
chain: GGCAGAGCUCAACACAGCGUGGCAAAGUGGCUGUGGCUAGACUGCC

In this series the parent is B1. The series is described as follows: self-cleavage, relative activity (ratio to wild type); higher = more cleavage; in vitro, sequencing; the parent is a self-cleaving ribozyme.
Regarding C3A A16U G19C G21A, the self-cleavage came out at 0.7.
In the case of C3A A14C U43A, the self-cleavage was determined as 0.08.
Next, G2U G19A G27U: 0.24; G2U G17U C23G G29A C31A: 0.07; G2U U9G G22C: 0.05.
Next, G2U C3U U9C G35C: 0.05.
The same measure for G2U C8G C31G: 0.03; for G2U U9A U32G G40A: 0.02; for C3A C18A A26U G27C C31A: 0.08.
For the variant G2U C8A G17C C18A, the self-cleavage was determined as 0.03.
On to G2U G21A A26U, for which the self-cleavage was found to be 0.21.
The same measure for G2U C37U C42A: 0.03; for G2U U9A A11G: 0.01.
Turning to C3A A25U G30A C46U, the self-cleavage was found to be 0.24.
Regarding C3A A6C A39G C42G, the self-cleavage came out at 0.04.
For C3A C15G U20A A26C G29U, the self-cleavage was 0.02.
Consider C3A A14G G21A G22A, for which the self-cleavage came to 2.71.
Next, G2U U34C A41G: 0.03.
Next, C3A A14G G30U A41C: 0.03; C3A C8A U43A: 0.79.
The same measure for C3A C10G C15U A39G A41C: 0.03; for C3A A14G G17C: 0.32; for G2U G5A C23G G27A G33C: 0.03.
In the case of C3A C23G U43C, the self-cleavage turned out to be 0.25.
The same measure for G2U C10A G27A C37A: 0; for C3A A25G C31A: 0.4.
Turning to C3A A6U G33C, the self-cleavage was 0.15.
Take G2U U32C C46U: the self-cleavage is 0.03.
As for C3A A11G C15A U34G G35A, the self-cleavage was determined as 0.03.
Next, G2U G5A U28G: 0.04; C3A A12G G29U: 0.13.
The same measure for C3A A12C A24U A39C C46U: 0.01.
Consider C3A A24G C42U, for which the self-cleavage stood at 0.08.
The same measure for C3A C10A C15U A26C A39U: 0.05.
Next, G2U G5U U9G C13A A26C G30C U38A C46A: 0.01; G2U C8A U38C: 0.04; G2U G7C G17C: 0.12.
As to G2U C23A C46A, the self-cleavage was 0.08.
As to C3A A14U C15U C23U, the self-cleavage is 0.42.
The same measure for C3A A11U U34G: 0.02; for C3A A6C G7C U28G G40A G44A C45A: 0; for G2U C15G U20C: 0.01.
Next, G2U C8G A25C G29U: 0; C3A C13U G22C G44U: 0.08; G2U C37G G44A: 0.06.
On to G2U G35U G36A A39U, for which the self-cleavage was determined as 0.03.
The same measure for C3A C15U A16C U20G U38G: 0.05.
The same measure for G2U C8G C10U A12C A25C C37G U38G: 0; for G2U U9A G33C G35C: 0.02; for G2U G7C U9G G33U G36C A41U C45G: 0.
The same measure for C3A C13A U32G: 0.13; for C3A C8G C13A: 0.3.
As to G2U G19C C45A, the self-cleavage came out at 0.1.
C3A A25G C45A: the self-cleavage was found to be 0.58.
The same measure for C3A A16U G22A U28C: 0.06.
The same measure for C3A A16U G33U C37A G40U C45U C46G: 0.09.
Consider C3A A11G G36U, for which the self-cleavage is 0.02.
Next, G2U G30A G33C G36U: 0.02; C3A A14U G35U A41U: 0.04; C3A C13U A16U G19A C31A: 0.19.
As to G2U G19A U20C G21U G27C, the self-cleavage came to 0.03.
Next, C3A C10A G17A G44A: 0.07; C3A C8U U38C: 0.51; C3A C8U A14C A16C C46U: 0.19.
The same measure for C3A A16G A39U G40A: 0.
For G2U G5C G36A, the self-cleavage was 0.04.
Next, C3A A12C C37A C42U: 0.01; G2U C8G G44A: 0.02.
Next, C3A A14U G21U A26G C45G: 0.32; G2U G29A A39C: 0; C3A A4U G7A C37A C42G: 0.01.
On to G2U G29U C31U U43A G44C, for which the self-cleavage was 0.01.
As to G2U G29U U32A, the self-cleavage was found to be 0.05.
For G2U C13A G17U A26C G27U, the self-cleavage is 0.08.
Consider G2U U28A G30A, for which the self-cleavage stood at 0.33.
Regarding C3A A4U U28G G35U U38G, the self-cleavage amounted to 0.05.
As for G2U C18A U38A A41G C46U, the self-cleavage is 0.
In the case of C3A C31A G35A, the self-cleavage came out at 0.04.
On to G2U C18A G33A, for which the self-cleavage came to 0.01.
Next, C3A A24G U32C: 0.2.
The same measure for G2U C23U A41C U43G: 0.
Next, G2U C8U C31G: 0.28; G2U C15U A16G A26G G36A: 0.02; C3A C10A C18U A26C G40C: 0.01.
C3A A12C A25G: the self-cleavage came to 0.06.
Regarding C3A A16C G27U C37U G40U, the self-cleavage stood at 0.12.
Consider C3A C15U A16U U20C, for which the self-cleavage is 0.17.
For the variant C3A A25U G33A C37G, the self-cleavage was determined as 0.15.
Consider C3A A12C G22A G30U, for which the self-cleavage was 0.06.
Next, C3A C13U G29U: 0.17; G2U G5A C18U: 0.02.
On to C3A C8A C13U C15A A24G, for which the self-cleavage was 0.27.
As to G2U G5C G27A U34A, the self-cleavage turned out to be 0.04.
Turning to C3A C8A C31G, the self-cleavage was determined as 0.22.
As for G2U C8U C13A G19A C31A A39C, the self-cleavage was 0.02.
With G2U C10G G33U G36C A39U, the self-cleavage stood at 0.
The same measure for G2U C18U G29A G33A U38A: 0.18.
The same measure for C3A C15G G22A G29U: 0.03.
The same measure for C3A C10U G17U G21C G33C: 0.05; for G2U G19C C23A: 0.22; for G2U G36U G40A: 0.02.
Regarding C3A A14C G35C C45A, the self-cleavage worked out at 0.06.
As for G2U G19A C31A, the self-cleavage was determined as 0.02.
Next, C3A A12U C13U: 0.82; C3A C13A G27C G30C G35A G36U: 0.17.
Next, C3A C15U G29C: 1.24; G2U U9C G33A G40A: 0.02.
Take C3A C8A A16G: the self-cleavage is 0.15.
For G2U G7C U9C C31A, the self-cleavage is 0.01.
Regarding G2U G35A C37U, the self-cleavage was determined as 0.1.
The same measure for C3A C18U U20A A39U: 0.08; for G2U U20C A24G U34A G40A: 0.13; for C3A A11C A16C G17U: 0.01.
Next, G2U U9G G30C U34A: 0.01; G2U G35U C42U C45U: 0.05; G2U C13A A14C: 0.04.
As for G2U G21A C23A G40A, the self-cleavage was determined as 0.02.
Take G2U U20A G36A: the self-cleavage is 0.01.
For the variant C3A A12U G17A A41C C45G, the self-cleavage was 0.12.
Regarding G2U G7A A26U U28A G36A, the self-cleavage amounted to 0.05.
The same measure for C3A A6U A25C G30C: 0.07.
The same measure for G2U C31G G33U C37A C42A: 0.02; for C3A C10U G21U: 0.21; for C3A C15A C31A G36A U38C: 0.01.
As for C3A A4U C23U, the self-cleavage turned out to be 0.4.
In the case of G2U C37A A39C, the self-cleavage worked out at 0.04.
Regarding G2U C18G C23A, the self-cleavage was 0.01.
C3A A14U A16G C18A G44U: the self-cleavage came to 0.11.
G2U G22C A25U U32C: the self-cleavage came out at 0.17.
On to G2U C31U U34A, for which the self-cleavage was determined as 0.04.
The same measure for C3A A11C U20G G30U: 0.03; for C3A C23U A26G: 0.4; for G2U U9C G22U A26C: 0.02.
Next, C3A A6C C13U U34C C37G: 0.12; C3A C10A C23A: 0; C3A C15U U28A U43A: 0.01.
Next, G2U G19U G22U G30U C46A: 0.19.
With G2U U20G A24U A25U C31A, the self-cleavage is 0.05.
As to C3A A24G U28C A39G G40A, the self-cleavage turned out to be 0.02.
As to C3A C8G U20C U28A, the self-cleavage came to 0.02.
The same measure for G2U U9G C31A: 0.37.
With G2U C23U C31A G40U, the self-cleavage was found to be 0.01.
Take G2U G17U A24U G35U C45U: the self-cleavage was found to be 0.01.
As to G2U G40U C45U, the self-cleavage turned out to be 0.01.
Consider C3A C13G G35A, for which the self-cleavage is 0.63.
Take C3A A6C C15G G33U C45G: the self-cleavage was 0.
Consider C3A C13A G35A A39U, for which the self-cleavage turned out to be 0.09.
The same measure for G2U U32G A39C U43C: 0.
Turning to G2U G5U A24U, the self-cleavage turned out to be 0.01.
In the case of C3A C8A C18A A41U, the self-cleavage came to 0.7.
The same measure for G2U U9G G17A C42U: 0.07; for G2U C10A U28C: 0.02.
Turning to G2U G17A C37U C46U, the self-cleavage stood at 0.03.
Next, C3A C15G C18A A39U: 0.07; C3A C15A G22C G35A: 0.24; C3A C10U A26G G27U C31U U34A C37U: 0.01.
Next, C3A A12C A14G G36A: 0.03; G2U C8U G19C A24C C42G: 0.01; C3A A4U C42G: 0.39.
The same measure for C3A C10U A11U C18A G29C C37G U43A C46A: 0; for C3A C23U A25C U28C G33U: 0.24; for C3A A24U C31U G36C: 0.02.
For G2U U20C C37A, the self-cleavage was found to be 0.06.
The same measure for C3A A12U G44U C45G: 0.34; for C3A A12C C13U G30C: 0.06; for C3A A16U G29A U32C: 0.12.
Take G2U C8G U9G U43C C45U: the self-cleavage was found to be 0.01.
